Screen size: about 340,000 compounds; about 20 (0.006%) were called active. Inconclusive results, whose numbers are uncertain, are shown with a selection of clear calls. The call rests on the fitted dose curve; in most records, active means well fitted inhibition curve with a large enough effect; inconclusive means small, poorly fitted or top-dose-only effect; inactive means no such curve, though single readings can be large or run the other way. Where the call is inconclusive, the potency comes from a doubtful curve fit.
What follows are molecules tested against Sphingomyelin phosphodiesterase (Homo sapiens) (UniProt P17405) (assay: Inhibitors of Secretory Acid Sphingomyelinase (S-ASM): qHTS). Settings: placental ASM, HMU-PC fluorogenic substrate (series up to 57.5 µM), 60 min; activity change, negative = inhibition: at the top concentration.
Sequence of UniProt P17405 (P17405 whole entry, looked up): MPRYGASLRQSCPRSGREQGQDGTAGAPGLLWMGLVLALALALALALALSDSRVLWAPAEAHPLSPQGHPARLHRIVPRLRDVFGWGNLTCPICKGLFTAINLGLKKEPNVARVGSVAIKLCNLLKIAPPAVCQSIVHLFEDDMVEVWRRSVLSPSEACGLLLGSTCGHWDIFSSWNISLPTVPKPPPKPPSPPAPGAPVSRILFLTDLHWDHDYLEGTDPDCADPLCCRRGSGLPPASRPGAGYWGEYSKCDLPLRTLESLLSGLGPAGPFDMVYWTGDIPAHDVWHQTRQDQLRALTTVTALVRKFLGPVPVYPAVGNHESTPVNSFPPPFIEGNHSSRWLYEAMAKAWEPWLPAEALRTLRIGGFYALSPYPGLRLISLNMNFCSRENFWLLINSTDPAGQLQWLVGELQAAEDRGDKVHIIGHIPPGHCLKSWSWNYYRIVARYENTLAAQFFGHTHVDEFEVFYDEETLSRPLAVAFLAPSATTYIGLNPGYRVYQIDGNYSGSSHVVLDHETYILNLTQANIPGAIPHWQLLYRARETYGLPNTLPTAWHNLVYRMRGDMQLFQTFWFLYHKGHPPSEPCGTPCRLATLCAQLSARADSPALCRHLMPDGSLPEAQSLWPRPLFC
Procedure, shortened: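 HMU-PC0 cleavage (9 uM final) by human placental ASM, 60 min at 37 °C following 10 min compound exposure at RT; stopped at pH 10, fluorescence Ex 386/Em 447 nm.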
Potency means the concentration at half of the fitted maximal effect; tags describe the fitted curve by direction and shape.

Compound	Potency	activity change, negative = inhibition
Cc1ccc(-c2nnc(CSc3nnc(COc4cccc5ccccc45)n3-c3ccccc3)o2)cc1	inconclusive: 631 µM [inhibitor, partial curve, poor fit]	
O=C(NCc1ccccc1F)c1cccc(S(=O)(=O)N2CCCCC2)c1		inactive: -1.35%
CC(=O)Nc1ccc(Nc2nc(C)c([N+](=O)[O-])c(Nc3ccccc3)n2)cc1	inconclusive: 200 µM [inhibitor, partial curve, poor fit]	
CCN1CCS/C1=C/C=C/C1=[N+](CC)CCS1	inconclusive: 56.2 µM [inhibitor, partial curve, poor fit]	
O=C(N/N=C/c1ccco1)C1CCCC1		inactive: -2.32%
Cc1ccc(S(=O)(=O)NC2=C(N3CCN(Cc4ccccc4)CC3)C(=O)c3ccccc3C2=O)cc1		inactive: 0.222%
CCc1ccc(Nc2cnn(-c3nc4ccccc4s3)c(=O)c2Cl)cc1	inconclusive: 112 µM [inhibitor, partial curve]	
CCc1ccc(NC(=O)CSc2nc3n[nH]c(C)c3c(=N)n2-c2cccc(OC)c2)cc1	inconclusive: 79.4 µM [inhibitor, partial curve, poor fit]	
CCOC(=O)c1c(CN2CCN(c3ccccc3)CC2)oc2cc(Br)c(O)cc12	inconclusive: 126 µM [inhibitor, partial curve, poor fit]	
C/C(=N\Nc1ccc(C(=O)c2c(C)cc3ccccn23)cc1[N+](=O)[O-])c1ccc(O)cc1	inconclusive: 355 µM [inhibitor, partial curve]	
COc1ccc(C(=O)COc2nc(C)cc(C)c2C#N)cc1		inactive: -2.28%
O=c1[nH]c(C2CCN(S(=O)(=O)Cc3ccccc3)CC2)nc2c1nnn2Cc1ccccc1Cl	inconclusive: 89.1 µM [inhibitor, single point]	
Cc1ccc(NC(=S)NNC(=O)c2ccc(N3CCOCC3)c([N+](=O)[O-])c2)cc1Cl	inconclusive: 89.1 µM [inhibitor, single point]	
CCOc1ccc(NC(=O)c2cc3ccccc3cc2O)cc1	inconclusive: 39.8 µM [inhibitor, partial curve, poor fit]	
O=[N+]([O-])c1ccc(/C=N/n2cnc3ccccc32)s1	inconclusive: 70.8 µM [inhibitor, partial curve, poor fit]	
CCOC(=O)c1c(NC(=O)c2ccc(N3C(=O)C4C5C=CC(C5)C4C3=O)cc2)sc2c1CCCC2 (stereo not drawn)		inactive: 16.1%
Cn1c(=O)n(CC(=O)OCc2ccccc2)c(=O)c2c1nc1n2CCCN1C1CCCCC1	inconclusive: 79.4 µM [inhibitor, single point]	
CC(C)CC(COCc1ccc([N+](=O)[O-])cc1)N1CCN(C(=O)c2ccc(C(F)(F)F)cc2)CCC1=O (stereo not drawn)		inactive: -1.29%
O=C(c1ccc(Cl)c(S(=O)(=O)N2CCc3ccccc32)c1)N1CCN(c2ccccc2O)CC1	inconclusive: 251 µM [inhibitor, partial curve, poor fit]	

Compound	Potency	activity change, negative = inhibition
CCOC(=O)c1c(C)[nH]c(C(=O)COC(=O)C2(C)CC2(Cl)Cl)c1C (stereo not drawn)	inconclusive: 355 µM [inhibitor, partial curve, poor fit]	
COc1ccc2c(-c3ccccc3)cc(SC(C)C(N)=O)nc2c1 (stereo not drawn)		inactive: 5.68%
O=C1c2ccccc2C(=Nc2ccccc2)C1c1cccc(Br)c1 (stereo not drawn)	inconclusive: 22.4 µM [inhibitor, partial curve, poor fit]	
CC[n+]1c(/C=C/c2c[nH]c3ccccc23)ccc2cc(C)ccc21	inconclusive: 79.4 µM [inhibitor, partial curve, poor fit]	
O=C(/C=C/c1ccccc1)Nc1cccnc1Oc1ccccc1F	inconclusive: 1410 µM [inhibitor, partial curve, poor fit]	
CCN(CC)c1ccc(/C=C(/C#N)c2nc3ccccc3[nH]2)c(OC(C)C)c1	inconclusive: 200 µM [inhibitor, partial curve, poor fit]	
C=CCc1ccc(OCCCOc2ccc(C)c(C)c2)c(OC)c1	inconclusive: 562 µM [inhibitor, partial curve, poor fit]	
Cc1nc(C)c(-c2csc(NCCc3ccccc3)n2)s1	inconclusive: 631 µM [inhibitor, partial curve, poor fit]	
COc1ccc(C2(c3ccc(OC)cc3)NC(=O)N(CC(=O)Nc3ccccc3)C2=O)cc1	inconclusive: 316 µM [inhibitor, partial curve, poor fit]	
CCCCCCN1C=CC(=C2C(=O)c3ccccc3C2=O)C=C1	inconclusive: 447 µM [inhibitor, partial curve, poor fit]	
Cc1csc2ncnc(N3CCN(C(=S)Nc4ccc(C(F)(F)F)cc4)CC3)c12	inconclusive: 70.8 µM [inhibitor, partial curve, poor fit]	
CC(C)(C)CC(C)(C)NCC(O)COc1ccc2c(c1)CCC2 (stereo not drawn)		inactive: -1.81%
C/C(=N\Nc1ccc([N+](=O)[O-])cc1)c1ccc(O)cc1	inconclusive: 224 µM [inhibitor, partial curve, poor fit]	
Nc1nonc1-n1nnc(C(=O)N/N=C/c2cccnc2)c1CSc1ccc(Cl)cc1	inconclusive: 398 µM [inhibitor, partial curve, poor fit]	
Oc1ccc(/C=N/Nc2nc(-c3ccccc3F)nc3ccccc23)c(O)c1	inconclusive: 100 µM [inhibitor, partial curve, poor fit]	
CCCOc1ccc(-c2c(C(=O)N/N=C/c3cccs3)nnn2-c2nonc2N)cc1	inconclusive: 100 µM [inhibitor, partial curve, poor fit]	
Cc1ccc2cccc(N=Cc3c(C)[nH]n(-c4ccccc4)c3=O)c2n1	inconclusive: 100 µM [inhibitor, partial curve, poor fit]	
Nc1ccc2c(c1Br)Cc1ccccc1-2	inconclusive: 200 µM [inhibitor, partial curve, poor fit]	
CC(=O)OCC1=C(C(=O)O)N2C(=O)C(NC(=O)c3ccc(COc4cccc(Cl)c4Cl)o3)C2SC1 (stereo not drawn)	inconclusive: 70.8 µM [inhibitor, partial curve, poor fit]	

Source: PubChem BioAssay AID504937 (National Center for Advancing Translational Sciences (NCATS), 2011)
